Measured values: the supplement of paper PMC4604168 (melanoma cell lines)
This is one part of the list. Single values are uncertain, as repeats are few or missing.

These compounds were tested on A2058 (assay: cell count relative to DMSO control; melanoma cells; higher = more viable cells). Settings: library dose: standard library concentration; 72 h.
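Also: cells treated in 1,536-well plates, then fixed and DAPI-stained, with nuclei counted from automated high-throughput microscope images.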

SMILES	cell count [%]
Cc1ccc(NC(=O)c2cccc(N(C)C)c2)cc1NC(=O)c1ccc(O)cc1 + O=C1NC(=O)/C(=C/c2ccc(-c3ccc(F)cc3O)o2)S1 [AS252424] (first compound 10 µM, partner dose 5 µM)	102
Cc1ccc(NC(=O)c2cccc(N(C)C)c2)cc1NC(=O)c1ccc(O)cc1 + COc1ccc2c(c1)CCC1C2CCC2(C)C(NCCCCCCN3C(=O)C=CC3=O)CCC12 [U73122] (first compound 10 µM, partner dose 2 µM)	70.7
COc1cc2c(Oc3ccc4[nH]c(C)cc4c3F)ncnc2cc1OCCCN1CCCC1 [cediranib] + O=C1NC(=O)/C(=C/c2ccc(-c3ccc(F)cc3O)o2)S1 [AS252424] (first compound 2 µM, partner dose 5 µM)	93.8
Cc1ccc(NC(=O)c2cccc(N(C)C)c2)cc1NC(=O)c1ccc(O)cc1 + COc1cc(N2CCC(N3CCN(C)CC3)CC2)ccc1Nc1ncc(Cl)c(Nc2ccccc2S(=O)(=O)C(C)C)n1 [NVP-TAE684] (first compound 10 µM, partner dose 0.4 µM)	59.3
CC(C)(C)c1cnc(CSc2cnc(NC(=O)C3CCNCC3)s2)o1 + Cc1cc([N+](=O)[O-])ccc1NS(=O)(=O)c1cc(Cl)ccc1Cl [FH535] (first compound 0.05 µM, partner dose 5 µM)	79.7
COc1cc2c(Oc3ccc4[nH]c(C)cc4c3F)ncnc2cc1OCCCN1CCCC1 [cediranib] + O=C(O)C(=O)Nc1sc2c(c1C(=O)O)CCNC2 [TCS401] (first compound 2 µM, partner dose 8.33333 µM)	126
COc1cc2c(Oc3ccc4[nH]c(C)cc4c3F)ncnc2cc1OCCCN1CCCC1 [cediranib] + COc1ccc(COc2ccc(Cc3cnc(N)nc3N)cc2OC)cc1 [GW2580] (first compound 2 µM, partner dose 5 µM)	98
NC(=O)c1ccc(N(C(N)=O)c2c(F)cccc2F)nc1-c1ccc(F)cc1F + Oc1cc(-c2nc(-c3ccccc3)[nH]c2-c2ccncc2)ccc1Cl [L779450] (first compound 2 µM, partner dose 1 µM)	95.7
NC(=O)c1ccc(N(C(N)=O)c2c(F)cccc2F)nc1-c1ccc(F)cc1F + N#Cc1c(O)c2c(-c3ccc(-c4ccccc4O)cc3)csc2[nH]c1=O [A769662] (first compound 2 µM, partner dose 10 µM)	95.1
CC(C)(C)c1cnc(CSc2cnc(NC(=O)C3CCNCC3)s2)o1 + O=C(Nc1ccccc1)c1cc([N+](=O)[O-])ccc1Cl [GW9662] (first compound 0.05 µM, partner dose 10 µM)	74.3

Each compound was assayed on A375 in the same assay as above. Settings: library dose: standard library concentration; 72 h.

SMILES	cell count [%]
CN(NC(=O)CC(=O)NN(C)C(=S)c1ccccc1)C(=S)c1ccccc1 + COc1ccc2c(c1)CCC1C2CCC2(C)C(NCCCCCCN3C(=O)C=CC3=O)CCC12 [U73122] (first compound 0.03 µM, partner dose 2 µM)	97
COc1cc2c(Oc3ccc4[nH]c(C)cc4c3F)ncnc2cc1OCCCN1CCCC1 [cediranib] + Cn1cc(/C=C2\C(=O)Nc3cccnc32)c2ccccc21 [GW441756] (first compound 2 µM, partner dose 2 µM)	138
COc1cc2c(Oc3ccc4[nH]c(C)cc4c3F)ncnc2cc1OCCCN1CCCC1 [cediranib] + COC(=O)c1sccc1S(=O)(=O)Nc1ccc(Nc2ccccc2)cc1OC [GSK0660] (first compound 2 µM, partner dose 5 µM)	97.9
COc1cc2c(Oc3ccc4[nH]c(C)cc4c3F)ncnc2cc1OCCCN1CCCC1 [cediranib] + COc1ccc2c(c1)CCC1C2CCC2(C)C(NCCCCCCN3C(=O)C=CC3=O)CCC12 [U73122] (first compound 2 µM, partner dose 2 µM)	91.3
CCc1ccc(CCOc2ccc(CC3SC(=O)NC3=O)cc2)nc1 (centres undefined) [pioglitazone] + O=c1cc(-c2cccc3c2Sc2ccccc2S3)oc(N2CCOCC2)c1 [KU55933] (first compound 10 µM, partner dose 5 µM)	128
CN(NC(=O)CC(=O)NN(C)C(=S)c1ccccc1)C(=S)c1ccccc1 + O=C(O)C(=O)Nc1sc2c(c1C(=O)O)CCNC2 [TCS401] (first compound 0.03 µM, partner dose 8.33333 µM)	184
CCc1ccc(CCOc2ccc(CC3SC(=O)NC3=O)cc2)nc1 (centres undefined) [pioglitazone] + COc1cc(N2CCC(N3CCN(C)CC3)CC2)ccc1Nc1ncc(Cl)c(Nc2ccccc2S(=O)(=O)C(C)C)n1 [NVP-TAE684] (first compound 10 µM, partner dose 0.4 µM)	86.2
NC(=O)c1ccc(N(C(N)=O)c2c(F)cccc2F)nc1-c1ccc(F)cc1F + CCN(CC)CCCCNc1ncc2cc(-c3cc(OC)cc(OC)c3)c(NC(=O)NC(C)(C)C)nc2n1 [PD173074] (first compound 2 µM, partner dose 0.5 µM)	136
CN(NC(=O)CC(=O)NN(C)C(=S)c1ccccc1)C(=S)c1ccccc1 + CCc1ccc(CCOc2ccc(CC3SC(=O)NC3=O)cc2)nc1 [pioglitazone] (first compound 0.03 µM, partner dose 10 µM)	120
CC(C)(C)c1cnc(CSc2cnc(NC(=O)C3CCNCC3)s2)o1 + COc1cc(N2CCC(N3CCN(C)CC3)CC2)ccc1Nc1ncc(Cl)c(Nc2ccccc2S(=O)(=O)C(C)C)n1 [NVP-TAE684] (first compound 0.05 µM, partner dose 0.4 µM)	88
Cc1ccc(NC(=O)c2cccc(N(C)C)c2)cc1NC(=O)c1ccc(O)cc1 + CCN(CC)CCCCNc1ncc2cc(-c3cc(OC)cc(OC)c3)c(NC(=O)NC(C)(C)C)nc2n1 [PD173074] (first compound 10 µM, partner dose 0.5 µM)	103
CN(NC(=O)CC(=O)NN(C)C(=S)c1ccccc1)C(=S)c1ccccc1 + COc1ccc(COc2ccc(Cc3cnc(N)nc3N)cc2OC)cc1 [GW2580] (first compound 0.03 µM, partner dose 5 µM)	111
Cc1ccc(NC(=O)c2cccc(N(C)C)c2)cc1NC(=O)c1ccc(O)cc1 + O=S(=O)(c1ccccc1)N(CC(F)(F)F)c1ccc(C(O)(C(F)(F)F)C(F)(F)F)cc1 [T0901317] (first compound 10 µM, partner dose 7 µM)	78.7
NC(=O)c1ccc(N(C(N)=O)c2c(F)cccc2F)nc1-c1ccc(F)cc1F + COc1ccc(-c2ccc3c(N4CCOCC4)nc(N4C[C@@H](C)O[C@@H](C)C4)nc3n2)cc1CO [KU0063794] (first compound 2 µM, partner dose 0.1 µM)	102
CCCCCCCCc1ccc(CCC(N)(CO)CO)cc1 [fingolimod] + CCN(CC)CCCCNc1ncc2cc(-c3cc(OC)cc(OC)c3)c(NC(=O)NC(C)(C)C)nc2n1 [PD173074] (first compound 10 µM, partner dose 0.5 µM)	84.3
Cc1ccc(NC(=O)c2cccc(N(C)C)c2)cc1NC(=O)c1ccc(O)cc1 + CCCCCCCCCCCC1=C(O)C(=O)C=C(O)C1=O [Embelin] (first compound 10 µM, partner dose 6 µM)	128
CCCCCCCCc1ccc(CCC(N)(CO)CO)cc1 [fingolimod] + O=C(O)C(=O)Nc1sc2c(c1C(=O)O)CCNC2 [TCS401] (first compound 10 µM, partner dose 8.33333 µM)	86.8
CN(NC(=O)CC(=O)NN(C)C(=S)c1ccccc1)C(=S)c1ccccc1 + CC(C)CCN1c2nc(Nc3cc(F)c(O)c(F)c3)ncc2N(C)C(=O)C1C [BID1870] (first compound 0.03 µM, partner dose 1 µM)	128
CCc1ccc(CCOc2ccc(CC3SC(=O)NC3=O)cc2)nc1 (centres undefined) [pioglitazone] + CC(C)CCN1c2nc(Nc3cc(F)c(O)c(F)c3)ncc2N(C)C(=O)C1C [BID1870] (first compound 10 µM, partner dose 1 µM)	92.5
NC(=O)c1ccc(N(C(N)=O)c2c(F)cccc2F)nc1-c1ccc(F)cc1F + COC(=O)c1sccc1S(=O)(=O)Nc1ccc(Nc2ccccc2)cc1OC [GSK0660] (first compound 2 µM, partner dose 5 µM)	102
CCCCCCCCc1ccc(CCC(N)(CO)CO)cc1 [fingolimod] + COC(=O)c1sccc1S(=O)(=O)Nc1ccc(Nc2ccccc2)cc1OC [GSK0660] (first compound 10 µM, partner dose 5 µM)	34.7
CC(C)(C)c1cnc(CSc2cnc(NC(=O)C3CCNCC3)s2)o1 + O=C1NC(=O)/C(=C/c2ccc(-c3ccc(F)cc3O)o2)S1 [AS252424] (first compound 0.05 µM, partner dose 5 µM)	105
CN(NC(=O)CC(=O)NN(C)C(=S)c1ccccc1)C(=S)c1ccccc1 + Cn1cc(/C=C2\C(=O)Nc3cccnc32)c2ccccc21 [GW441756] (first compound 0.03 µM, partner dose 2 µM)	170
CC(C)(C)c1cnc(CSc2cnc(NC(=O)C3CCNCC3)s2)o1 + O=c1cc(-c2cccc3c2Sc2ccccc2S3)oc(N2CCOCC2)c1 [KU55933] (first compound 0.05 µM, partner dose 5 µM)	105
